Results taken from the supplement of paper PMC12067230.
This is a noisy data set.

Experiment: amyloid nucleation score relative to library mode (yeast Sup35 reporter selection) (log enrichment difference); higher = more amyloid nucleation; sequences are the first 22 residues of the Bri2 peptide extended by up to 12 random residues
Conditions: random library (experiment): 1;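 active = nucleation score significantly above 0 at FDR 0.05; inactive = not significantly above 0 or absent from output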
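Note: [psi-pin-] Saccharomyces cerevisiae expressing SupN fusions, induced by 100 µM Cu2SO4, selected 7 d at 30 °C without adenine and uracil, scored by deep sequencing of output versus input.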

Sequence | amyloid nucleation score
EASNCFAIRHFENKFAVETLICRDSLASWYEPLT | inactive
EASNCFAIRHFENKFAVETLICRDVQLKSVGRTL | inactive
EASNCFAIRHFENKFAVETLICRDWWFTYFDNGR | 1.99
EASNCFAIRHFENKFAVETLICRDYSLPWPQVGA | -0.345
EASNCFAIRHFENKFAVETLICRDYVNLDFSDRT | 5.03
EASNCFAIRHFENKFAVETLICRE | -0.0664
EASNCFAIRHFENKFAVETLICREAKVLSLGGAR | 4.34
EASNCFAIRHFENKFAVETLICREARQRLWREQA | inactive
EASNCFAIRHFENKFAVETLICRECPGHVDRNWL | inactive
EASNCFAIRHFENKFAVETLICRECSCCIPNVVP | -0.203
EASNCFAIRHFENKFAVETLICREDEVSSSGALV | inactive
EASNCFAIRHFENKFAVETLICREEVLRT | inactive
EASNCFAIRHFENKFAVETLICREFCDVIADWSS | inactive
EASNCFAIRHFENKFAVETLICREFRVKDSILPR | inactive
EASNCFAIRHFENKFAVETLICREFSTWDQLSCN | inactive
EASNCFAIRHFENKFAVETLICREFTALVEMKPN | 0.879
EASNCFAIRHFENKFAVETLICREHMLTMLGYVL | inactive
EASNCFAIRHFENKFAVETLICREIAHDLWFYW | inactive
EASNCFAIRHFENKFAVETLICRELLVLGTWPR | inactive
EASNCFAIRHFENKFAVETLICREMGVRDDAVRV | inactive
EASNCFAIRHFENKFAVETLICREMLVATSGRVR | inactive
EASNCFAIRHFENKFAVETLICRENWGRVQKRTV | inactive
EASNCFAIRHFENKFAVETLICREPSLEV | inactive
EASNCFAIRHFENKFAVETLICREPSVRQQRSEG | inactive
EASNCFAIRHFENKFAVETLICREQGSLCNHSNG | inactive

Sequence | amyloid nucleation score
EASNCFAIRHFENKFAVETLICREQRRAPWTSRR | inactive
EASNCFAIRHFENKFAVETLICRERVRYMVGWRG | inactive
EASNCFAIRHFENKFAVETLICRESRRAGFRVPG | inactive
EASNCFAIRHFENKFAVETLICRETLGFKGVCLW | inactive
EASNCFAIRHFENKFAVETLICREWYAVDGAGLE | inactive
EASNCFAIRHFENKFAVETLICRFALGNQEFGED | 0.171
EASNCFAIRHFENKFAVETLICRFDAPLSFVDKE | inactive
EASNCFAIRHFENKFAVETLICRFEMTVSERAEP | inactive
EASNCFAIRHFENKFAVETLICRFESVNYQSVWA | inactive
EASNCFAIRHFENKFAVETLICRFFVARMEECAE | inactive
EASNCFAIRHFENKFAVETLICRFHITLRMRLVS | inactive
EASNCFAIRHFENKFAVETLICRFIAVVSEFSIK | inactive
EASNCFAIRHFENKFAVETLICRFIHAVEFEDLT | inactive
EASNCFAIRHFENKFAVETLICRFKDTRLVYMLQ | inactive
EASNCFAIRHFENKFAVETLICRFKIDSSVYVLL | inactive
EASNCFAIRHFENKFAVETLICRFLLSRLGQASW | -0.338
EASNCFAIRHFENKFAVETLICRFPHLAKLYMTV | inactive
EASNCFAIRHFENKFAVETLICRFQGVLPLLEVR | inactive
EASNCFAIRHFENKFAVETLICRFRFCAC | 5.33
EASNCFAIRHFENKFAVETLICRFRFFRTSLYSV | inactive
EASNCFAIRHFENKFAVETLICRFRSFVTCSEQR | inactive
EASNCFAIRHFENKFAVETLICRFSHSHSNEVKG | inactive
EASNCFAIRHFENKFAVETLICRFSMRLSATVAR | inactive
EASNCFAIRHFENKFAVETLICRFTCDKLFAS | inactive
EASNCFAIRHFENKFAVETLICRFTTLVSGFALW | inactive

Same assay, conditions: random library (experiment): 2

Sequence | amyloid nucleation score
EASNCFAIRHFENKFAVETLICRDSISNGNSVEW | 0.844
EASNCFAIRHFENKFAVETLICRDSTVMWGLRGT | 2.45
EASNCFAIRHFENKFAVETLICRDVFRQGRMEFC | inactive
EASNCFAIRHFENKFAVETLICRDWSMSYGACGR | 3.6
EASNCFAIRHFENKFAVETLICRDYSITPRNYTG | inactive
EASNCFAIRHFENKFAVETLICRDYSVNLEPISF | inactive
EASNCFAIRHFENKFAVETLICREAMWSALMTRR | inactive
EASNCFAIRHFENKFAVETLICREAYCLACWTLD | 4.99
EASNCFAIRHFENKFAVETLICRECLHHVPLSLC | -0.372
EASNCFAIRHFENKFAVETLICRED | inactive
EASNCFAIRHFENKFAVETLICREDGDFLDRNCM | inactive
EASNCFAIRHFENKFAVETLICREDNWQYLMGLA | -0.255
EASNCFAIRHFENKFAVETLICREEMLETGRLPA | inactive
EASNCFAIRHFENKFAVETLICREFVVHCFSSEC | inactive
EASNCFAIRHFENKFAVETLICREGGA | inactive
EASNCFAIRHFENKFAVETLICREKCQDQQRVQA | inactive
EASNCFAIRHFENKFAVETLICRESFSRQMHDMC | 3.96
EASNCFAIRHFENKFAVETLICREWLRCGKSKRS | inactive
EASNCFAIRHFENKFAVETLICREYPNVYGRVLI | inactive

Sequence | amyloid nucleation score
EASNCFAIRHFENKFAVETLICRFCTNCELYAPA | 3.91
EASNCFAIRHFENKFAVETLICRFDATVYDGNGT | inactive
EASNCFAIRHFENKFAVETLICRFE | inactive
EASNCFAIRHFENKFAVETLICRFESSTRLYHLL | inactive
EASNCFAIRHFENKFAVETLICRFFNLDS | 1.34
EASNCFAIRHFENKFAVETLICRFHF | inactive
EASNCFAIRHFENKFAVETLICRFHRAIRFMVKR | inactive
EASNCFAIRHFENKFAVETLICRFHRSNMSGISK | inactive
EASNCFAIRHFENKFAVETLICRFISSLTLLSNM | inactive
EASNCFAIRHFENKFAVETLICRFPGR | -0.104
EASNCFAIRHFENKFAVETLICRFQHPY | -0.278
EASNCFAIRHFENKFAVETLICRFQVLWWSKCQG | inactive
EASNCFAIRHFENKFAVETLICRFRFMFLFVMSV | inactive
EASNCFAIRHFENKFAVETLICRFSFCYSFFGLW | inactive
EASNCFAIRHFENKFAVETLICRFSGNTYRIRVV | inactive
EASNCFAIRHFENKFAVETLICRFSLDFVLKCS | inactive
EASNCFAIRHFENKFAVETLICRFSLKGIAWLLG | inactive
EASNCFAIRHFENKFAVETLICRFSMYWSDLIRR | -0.0953
EASNCFAIRHFENKFAVETLICRFSPLSPNVVVY | inactive

Same assay, conditions: random library (experiment): 3

Sequence | amyloid nucleation score
EASNCFAIRHFENKFAVETLICRDSWGGAVFWWL | inactive
EASNCFAIRHFENKFAVETLICRDSYKWLGIW | 1.96
EASNCFAIRHFENKFAVETLICRDVRSTNMVSEY | inactive
EASNCFAIRHFENKFAVETLICRDWTAGKDGTRW | 3.51
EASNCFAIRHFENKFAVETLICREA | inactive
EASNCFAIRHFENKFAVETLICREAFSCVRYRLL | inactive
EASNCFAIRHFENKFAVETLICREEIKRIGIVLS | inactive
EASNCFAIRHFENKFAVETLICREGGLYDAAAVA | inactive
EASNCFAIRHFENKFAVETLICREGSMSWRPYSW | 3.75
EASNCFAIRHFENKFAVETLICREQSSVMGWSDE | 0.711
EASNCFAIRHFENKFAVETLICRERADKMLRRGW | inactive
EASNCFAIRHFENKFAVETLICRERGTVGQKEQP | 1.32
EASNCFAIRHFENKFAVETLICRESVSARQSGWA | 2.05
EASNCFAIRHFENKFAVETLICRESVVSGLRMLR | 0.505
EASNCFAIRHFENKFAVETLICREVDRQGRLSKR | 3.42
EASNCFAIRHFENKFAVETLICREVNTSISRR | 4.01
EASNCFAIRHFENKFAVETLICREYIQLEDGNLD | -0.308
EASNCFAIRHFENKFAVETLICREYLDIR | inactive
EASNCFAIRHFENKFAVETLICRF | inactive
EASNCFAIRHFENKFAVETLICRFCMRFAMSVRW | inactive
EASNCFAIRHFENKFAVETLICRFCTWRKASVSV | inactive
EASNCFAIRHFENKFAVETLICRFD | 1.02
EASNCFAIRHFENKFAVETLICRFDGVSTGFSAS | inactive
EASNCFAIRHFENKFAVETLICRFGTRLEGGFGG | 1.65
EASNCFAIRHFENKFAVETLICRFNHKSNFTCGL | 3.33
EASNCFAIRHFENKFAVETLICRFPVLIEVLGIS | inactive
EASNCFAIRHFENKFAVETLICRFSAVCPRLSCR | inactive
EASNCFAIRHFENKFAVETLICRFSEKGWKNYKP | 1.07
EASNCFAIRHFENKFAVETLICRFVDVQVHNANL | inactive
